# According to PubChem BioAssay AID1476 (National Center for Advancing Translational Sciences (NCATS), 2009):
# Screen size: about 200,000 compounds; about 4,500 (2.2%) were called active. The inconclusive results got no clear call from the source; some entries with a clear call stand among them for comparison. The call rests on the fitted dose curve; in most records, active means well fitted inhibition curve with a large enough effect; inconclusive means small, poorly fitted or top-dose-only effect, or effect the other way; inactive means flat fitted curve, though single readings scatter. Where the call is inconclusive, the potency comes from a doubtful curve fit.
# Target: Cruzipain (Trypanosoma cruzi) (UniProt P25779)
# Test: qHTS Assay for Promiscuous and Specific Inhibitors of Cruzain (without detergent); further: nearly all actives have a fitted effect of over 40% in size
# Conditions: purified cruzain, Z-FR-AMC fluorescence, no detergent
# Protocol: Cruzain is a cysteine protease from the tropical parasite Trypanosoma cruzi. Dual qHTS experiment was performed against the NCGC compound collection in order to 1) identify novel inhibitors of the enzyme and 2) profile the compound collection for promiscuous inhibitors operating via colloidal aggregation (by performing detergent-free and detergent-containing comparison screens). Cruzain was assayed by the use of fluorogenic coumarin-based substrate Z-FR-AMC: proteolytic cleavage releases AMC, whose fluorescence is measured at 360 nm excitation and 450 nm emission. Purified cruzain was supplied by the labs of Prof. James McKerrow and Brian Shoichet, UC San Francisco.
# This assay had 0.00005% Triton X-100 concentration. See also releated assay "qHTS Assay for Promiscuous and Specific Inhibitors of Cruzain (with detergent)" with 0.01% Triton X-100.
# See following references for additional details:
# Assay Provider: Shoichet, Brian; University of California, San Fancisco
# Screening Center PI: Austin, C.P.
# Screening Center: NIH Chemical Genomics Center [NCGC]
# Buffer: 100 mM Sodium Acetate, pH 5.5, 5 mM DTT, Triton X-100 concentration: 0.01%.
# Buffer in columns 3 and 4 as negative control (no enzyme).
# Substrate solution: 2 uM final concentration of Z-FR-AMC (catalog number I-1160, Bachem) dispensed throughout the plate.
# Enzyme: 1.5 nM Cruzain final concentration in columns 1, 2, 5-48. Column 1 is neutral (100% activity). Column 2 contained titration of covalent inhibitor K11777, starting concentration 1 mM, then 1:2 dilution in duplicate).
# Three uL of enzyme or buffer were dispensed to 1536-well Greiner black solid bottom plates. Compounds and controls (23 nL) were transferred via Kalypsys PinTool. The plates were incubated for 15 min at room temperature, and then 1 uL of substrate solution was added to start the reaction. The plates were immediately transferred to and read 4 times every 30 seconds for 2 min on ViewLux High-throughput CCD imager (Perkin-Elmer) using 360 nm excitation and 450 nm emission fluorescence protocol. The fluorescence intensity difference between the third and the first time points (time lapse of 60 seconds) was used to compute reaction progress.
# Potency means the concentration at half of the fitted maximal effect; tags describe the fitted curve by direction and shape.
# Sequence of UniProt P25779 (P25779 whole entry, looked up): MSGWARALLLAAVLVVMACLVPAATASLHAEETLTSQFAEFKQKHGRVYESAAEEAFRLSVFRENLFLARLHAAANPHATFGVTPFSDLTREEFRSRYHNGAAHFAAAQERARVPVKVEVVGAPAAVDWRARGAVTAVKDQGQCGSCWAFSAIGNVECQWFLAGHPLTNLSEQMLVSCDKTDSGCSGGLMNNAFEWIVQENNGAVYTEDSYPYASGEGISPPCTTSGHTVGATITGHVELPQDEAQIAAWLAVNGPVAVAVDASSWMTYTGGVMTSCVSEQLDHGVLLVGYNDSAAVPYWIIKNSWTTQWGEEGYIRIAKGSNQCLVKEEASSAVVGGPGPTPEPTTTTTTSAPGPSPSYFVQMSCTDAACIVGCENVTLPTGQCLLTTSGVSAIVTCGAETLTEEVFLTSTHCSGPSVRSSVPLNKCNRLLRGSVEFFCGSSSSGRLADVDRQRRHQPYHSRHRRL
Structure (SMILES),Potency,"max response, negative = inhibition"
COc1ccc(-n2c(C)cc(C(=O)CN3C(=O)NC4(CCc5ccccc54)C3=O)c2C)cc1 (centres undefined),"inconclusive: 39.8 µM [inhibitor, single point]",
CCN(CC)S(=O)(=O)c1cc(NC(=O)C(C)N(C)CC(=O)Nc2c(C)cccc2C)ccc1C (centres undefined),"inconclusive: 31.6 µM [activator, single point]",
CCc1ccc(OCc2nnc(SCC(=O)Nc3cccc(C(=O)N4CCOCC4)c3)o2)cc1,"inconclusive: 31.6 µM [activator, single point]",
Cc1c(NC(=O)c2cnn3c2NC(c2ccc(Br)cc2)CC3C(F)(F)F)c(=O)n(-c2ccccc2)n1C (centres undefined),"inconclusive: 31.6 µM [activator, partial curve]",
CCOc1ccc(C(=O)NCc2nc(-c3ccc(Cl)cc3)no2)cc1OCC,,inactive: -5.04%
C=CCn1c(=NC(=O)c2cc(-c3cccs3)nc3ccccc23)sc2cc(S(N)(=O)=O)ccc21,"inconclusive: 12.6 µM [inhibitor, partial curve]",
COc1ccc(NC(=O)CCCN2C(=O)CCn3nc(-c4cn(C)c5ccccc45)cc32)cc1,"inconclusive: 25.1 µM [activator, partial curve]",
COc1ccccc1-c1nnc(SC(C(=O)c2c[nH]c3ccccc23)c2ccccc2)n1C (centres undefined),"inconclusive: 31.6 µM [inhibitor, single point]",
COc1ccc(CNC(=O)C2CCN(C(=O)N3CCOc4ccc(Cl)cc43)CC2)cc1,,inactive: 4.45%
O=C(CN1C(=O)C2(SCC(=O)N2c2ccc(F)c(F)c2)c2ccccc21)Nc1cccc(Cl)c1 (centres undefined),"inconclusive: 20 µM [inhibitor, partial curve]",
Cc1ccccc1OCC(=O)Nc1ccc2nc(SCC(=O)N3CCOCC3)sc2c1,"inconclusive: 39.8 µM [activator, single point]",
O=C(Cc1nc2ccccc2s1)c1ccc(O)cc1O,"inconclusive: 31.6 µM [inhibitor, single point]",
CCOc1ccc(Cn2c(CNS(=O)(=O)c3ccc(C(C)(C)C)cc3)nc3cccnc32)cc1,,inactive: -12.8%
COc1cccc(NC(=O)Cn2c(=O)n(Cc3ccc(C(=O)NCc4ccc(C)cc4)cc3)c(=O)c3ccccc32)c1,active: 12.6 µM,
COc1ccc(Cl)cc1C(=O)NCCS(=O)(=O)N1CCN(c2ccccc2OC)CC1,"inconclusive: 31.6 µM [activator, single point]",
CC(C)OC(=O)c1cc(NC(=O)c2nn(C)cc2Br)cc(C(=O)OC(C)C)c1,"inconclusive: 12.6 µM [activator, partial curve]",
COc1cccc(OCc2nnc(SCC(=O)NCc3ccco3)n2CCc2ccccc2)c1,"inconclusive: 31.6 µM [activator, single point]",
CC(=O)Nc1ccc(SCC(=O)c2cc(C)n(-c3ccccc3)c2C)cc1,"inconclusive: 39.8 µM [activator, single point]",
Cc1nn(-c2ccccn2)c2nc(-c3cccs3)cc(C(=O)NCc3ccco3)c12,"inconclusive: 39.8 µM [activator, single point]",
Cc1ccc2c(=O)c(C(=O)c3ccc(Cl)cc3)cn(CC(=O)Nc3ccc4c(c3)OCCO4)c2n1,,inactive: 1.25%
CCOC(=O)c1cccc(NC(=O)CSc2nnc(COc3ccc(Cl)cc3)o2)c1,"inconclusive: 39.8 µM [inhibitor, single point]",
Cc1cccc(C(=O)NCc2nc3ccccc3n2Cc2ccccc2Cl)c1,,inactive: 16.1%

Structure (SMILES),Potency,"max response, negative = inhibition"
CCOC(=O)c1cc(-c2ccc(C)cc2)n(CCC(=O)NCCc2ccc(C)cc2)c1C,,inactive: 13.3%
COc1cc(-c2cc3n(C)c(C)c(CCC(=O)NC4CCCCC4)c(=O)n3n2)cc(OC)c1OC,,inactive: -9.87%
Cc1ccc(S(=O)(=O)N2CCc3ccccc3C2CN2C(=O)c3ccccc3C2=O)cc1 (centres undefined),"inconclusive: 25.1 µM [inhibitor, single point]",
CC1(C)CC(=O)C2=C(C1)OC(N)=C(C#N)C21C(=O)N(Cc2ccccc2Cl)c2ccccc21 (centres undefined),"inconclusive: 39.8 µM [activator, single point]",
COc1ccc(OC)c(CC2C(=O)Nc3ccc(Br)cc32)c1 (centres undefined),"inconclusive: 39.8 µM [activator, single point]",
Cc1ccc(C(=O)Nc2ccc(S(=O)(=O)N(Cc3ccccc3)c3ccccc3)cc2)cc1,"inconclusive: 12.6 µM [inhibitor, single point]",
CCc1cc[n+](-c2nc3ccccc3nc2[N-]S(=O)(=O)c2ccc(Br)s2)cc1,"inconclusive: 39.8 µM [activator, single point]",
CCOc1ccccc1N1Cc2ccccc2C1,"inconclusive: 3.16 µM [inhibitor, full curve]",
CN(C)c1ccc(C(CNC(=O)c2ccccc2Br)c2c[nH]c3ccccc23)cc1 (centres undefined),active: 25.1 µM,
Cc1ccc(N2C(=O)C(CC(=O)Nc3ccc(F)cc3)N(Cc3ccc4c(c3)OCO4)C2=O)cc1 (centres undefined),,inactive: -8.82%
Cc1ccc2cccc(S(=O)(=O)N3CCN(c4cccc(Cl)c4)CC3)c2n1,,inactive: -2.32%
CN1CCN(c2ncc3nc(-c4cn(C)c5ccccc45)c(=O)n(CCC#N)c3n2)CC1,,inactive: 2.77%
COc1ccc(C)cc1NC(=O)CSc1nnc(-c2ccc(C)cc2)o1,,inactive: -3.64%
O=C(NCc1ccco1)c1sc2ccccc2c1Cl,active: 25.1 µM,
Cc1ccc(Sc2ccc(N3CCC(C(=O)Nc4ccc(Cl)cc4)CC3)nn2)cc1,,inactive: 10.9%
CO/C=C\C=C/c1nnn(-c2ccc(Cl)cc2)n1,"inconclusive: 39.8 µM [activator, single point]",
O=C1OCCN1C(=O)[C@H]1[C@H](c2ccccc2)C(c2cccc(Cl)c2)=NN1c1ccc(Br)cc1,active: 12.6 µM,
COc1ccc2c(Sc3ccc(C)cc3)c(C(=O)NC(C)c3ccccc3)[nH]c2c1 (centres undefined),"inconclusive: 39.8 µM [inhibitor, single point]",
COc1cc([C@@H]2Nc3c(F)cccc3[C@@H]3C=CC[C@@H]32)cc(Br)c1OC,,inactive: 0.962%
CC(C)c1ccc(NC(=O)Nc2cc3sccc3n2C)cc1,active: 7.94 µM,
CCOCCCNc1nc2c(-c3ccccc3)nnn2c2ccccc12,"inconclusive: 39.8 µM [inhibitor, single point]",
Cc1ccc(S(=O)(=O)N(CC(O)Cn2c3ccccc3c3ccccc32)c2cccc(C(=O)NCCO)c2)cc1 (centres undefined),"inconclusive: 7.94 µM [activator, full curve]",

Structure (SMILES),Potency,"max response, negative = inhibition"
CCC(Cn1nnc2ccccc2c1=O)NC(=O)Nc1ccccc1Cl (centres undefined),,inactive: 19%
C[C@H](CN(C)C)C(O)(c1ccccc1)c1ccccc1,,inactive: 2.93%
CN1CCN(c2ncncc2-c2cccnc2)CC1,,inactive: -5.34%
O=C(CSc1nc2c([nH]c3ccccc32)c(=O)n1-c1ccc(F)cc1)Nc1ccc2c(c1)OCCO2,"inconclusive: 12.6 µM [inhibitor, partial curve, poor fit]",
COc1ccc(C)cc1S(=O)(=O)N(CC(=O)Nc1cc([N+](=O)[O-])ccc1C)c1ccc(C)c(C)c1,"inconclusive: 12.6 µM [inhibitor, partial curve, poor fit]",
CC1(C)C(O)CC(O)[C@]2(C)C1CC(O)[C@]1(C)C2CC[C@@]2(C)C(c3ccoc3)CC3OC312 (some centres undefined),"inconclusive: 39.8 µM [activator, single point]",
CCOC(=O)c1c(C)[nH]c(C)c1S(=O)(=O)N1CCC(C(=O)NCc2ccc(OC)cc2)CC1,,inactive: -1.77%
Cc1ccc(S(=O)(=O)N2CCCc3cc(NC(=O)c4cccc(Cl)c4)ccc32)cc1,"inconclusive: 39.8 µM [inhibitor, single point]",
CC(=O)C1=C(C)NC(SCC(=O)c2ccc(F)cc2)=C(C#N)C1c1ccco1 (centres undefined),,inactive: -17.4%
Cc1ccc(OCC(=O)N2CCN(C(=O)CCC3CCCC3)CC2)cc1,"inconclusive: 25.1 µM [activator, single point]",
COc1cc2c(cc1NC(=O)COC(=O)[C@@H](NS(=O)(=O)c1ccccc1)C(C)C)oc1ccccc12,"inconclusive: 39.8 µM [inhibitor, single point]",
Cc1ccc2nc(SCC(=O)c3ccc4c(c3)OCO4)[nH]c2c1,"inconclusive: 39.8 µM [inhibitor, single point]",
CN(CC(=O)Nc1cccc(C#N)c1)S(=O)(=O)c1cc2c(cc1Cl)NC(=O)CO2,,inactive: 2.13%
C=C(C)C(=O)OC1(C(F)(F)F)Oc2cc(C)ccc2NC1=O (centres undefined),active: 7.94 µM,
O=C(Nc1ccc(Cl)cc1)c1ccc2c(c1)N(Cc1ccccc1)C(=O)c1ccccc1S2(=O)=O,"inconclusive: 31.6 µM [inhibitor, single point]",
COc1ccc(OC)c(N=c2ssnc2Cl)c1,"inconclusive: 31.6 µM [inhibitor, single point]",
O=C(CSc1nc2ccccc2n1Cc1cccc(Cl)c1)N1CCN(c2ccc(F)cc2)CC1,,inactive: 10.2%
O=C(NCCCO)C(=O)Nc1c2c(nn1-c1ccc(F)cc1)CSC2,"inconclusive: 39.8 µM [activator, single point]",
CCOC(=O)c1c(NC(=O)CC2SC(N)=NC2=O)sc2c1CCC(C)C2 (centres undefined),"inconclusive: 39.8 µM [activator, single point]",
Cc1ccc(C(=O)COC(=O)C(Cc2c[nH]c3ccccc23)NC(=O)c2ccc(Br)cc2)cc1 (centres undefined),active: 12.6 µM,
